Reference: the supplement of paper PMC4166925
± gives the standard deviation of the averaged measurements. In all, about 33,000 sequences were measured (“E-score (dimensionless, -0.5 to 0.5)”: median about -0.049, highest 2% from about 0.37 on). The list shows a part of the results.

test system: T1, PmTbr T-box DNA-binding domain (GST fusion); experiment: PBM E-score of 8-mer (E-score (dimensionless, -0.5 to 0.5)); Tbr is Tbrain of the sea star Patiria miniata (Pm) or the sea urchin Strongylocentrotus purpuratus (Sp); higher = stronger binding preference; most listed sequences are background and not binding sites; conditions: the construct has about 5 more residues each side
T1 sequence: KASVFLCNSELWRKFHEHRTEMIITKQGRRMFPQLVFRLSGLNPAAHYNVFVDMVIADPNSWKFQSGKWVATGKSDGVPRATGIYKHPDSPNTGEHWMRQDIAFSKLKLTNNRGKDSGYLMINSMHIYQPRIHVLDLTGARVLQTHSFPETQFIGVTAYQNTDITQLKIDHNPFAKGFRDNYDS
Method in brief: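 Universal Agilent oligonucleotide arrays, made double-stranded by primer extension, were incubated with 200 nM GST-fused Tbr T-box DNA-binding domain in PBS (pH 7.5). The protein was expressed in BL21 E. coli at 20 °C and purified by glutathione affinity chromatography. After scanning and quantification, the Universal PBM Analysis Suite assigned an enrichment E-score to each ungapped 8-mer, averaged over duplicate arrays.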

Sequence	PBM E-score of 8-mer
CCGTAGCG	-0.169 ± 0.0029
ATCATCAC	0.381 ± 0.008
ACACCGTA	0.216 ± 0.016
ACTTCGCA	0.351 ± 0.0071
CAGGTAGC	-0.062 ± 0.011
CCTCATCC	-0.0237 ± 0.038
TCAAGTGA	0.147 ± 0.036
CTACGGGC	-0.126 ± 0.08
CAATGCGC	0.0146 ± 0.087
TGGGAAAA	0.0876 ± 0.041
TCTCAGAA	-0.165 ± 0.036
AAGCATTA	-0.0757 ± 0.075
AATATTGA	-0.0213 ± 0.066
CCCTACCC	-0.222 ± 0.0063
GACGTGCA	0.155 ± 0.018
AGGCCTCG	-0.0795 ± 0.089
AATATTCG	0.0865 ± 0.092
AGATGACT	-0.198 ± 0.0034
GCAAACGC	0.0327 ± 0.067
ATGCTCCA	-0.0597 ± 0.036
GAATTCGC	0.26 ± 0.06
CGACGCCG	0.147 ± 0.031

Sequence	PBM E-score of 8-mer
AAAAGAGG	-0.0773 ± 0.0089
GACGTATC	-0.236 ± 0.055
CAATCTCG	0.136 ± 0.042
AAGGACGA	-0.202 ± 0.033
ACCGGGCC	-0.292 ± 0.12
ACCGACAC	0.391 ± 0.02
AGGTATAC	-0.226 ± 0.008
GCTTTGAC	-0.034 ± 0.033
TAGTAGGA	-0.184 ± 0.025
TCCAACAA	-0.055 ± 0.0034
ACTAACAA	0.214 ± 0.032
CTCCATTA	-0.215 ± 0.057
AAGGTGAT	0.424 ± 0.021
CGTGCCAG	0.178 ± 0.0057
AGGCAGCA	-0.237 ± 0.018
ACCACAAA	-0.014 ± 0.036
CCTTAGAC	-0.0798 ± 0.038
AATATAAT	-0.0469 ± 0.047
CCGACGAC	-0.0371 ± 0.099
ATCGTCCC	-0.0488 ± 0.0074
AAGCGTCG	0.0961 ± 0.0071
GTTGCCGA	-0.0534 ± 0.066

Sequence	PBM E-score of 8-mer
AACCTCGC	0.196 ± 0.035
CCCTCCAG	-0.117 ± 0.04
GACCGAGA	-0.102 ± 0.024
CCTACGCA	-0.19 ± 0.057
CGTCTTCC	-0.0652 ± 0.0067
GCCATCAA	-0.0808 ± 0.022
TAACTTGA	-0.127 ± 0.056
AGCCTACT	-0.00437 ± 0.033
AGTCGCTC	0.00723 ± 0.089
ATCTGAAC	0.0481 ± 0.04
ACTTCTGG	0.0765 ± 0.065
CAGCATTC	-0.0896 ± 0.0049
CATGACAC	0.389 ± 0.0048
CGATGCTA	-0.0532 ± 0.085
CCCTAAGC	-0.0346 ± 0.01
CGTGCGCA	0.0827 ± 0.019
CAGGGTGA	0.155 ± 0.077
CCAACATA	0.064 ± 0.042
CAAGTCTG	0.157 ± 0.013
CGTCTACA	-0.0537 ± 0.044
AACGGATG	-0.0787 ± 0.049
GTTCGGTA	0.0103 ± 0.042

Sequence	PBM E-score of 8-mer
TGGCCGAA	0.00542 ± 0.071
CTCTCATA	-0.152 ± 0.0066
GTTACATA	-0.0916 ± 0.032
ACTTTGTG	0.0808 ± 0.11
GCCTGCAC	0.0125 ± 0.0026
ACGCGGGA	-0.188 ± 0.1
ACCAAATA	-0.2091 ± 0.0015
CGCCACGA	0.0748 ± 0.052
AGTCCTGC	-0.102 ± 0.033
CTGAGCAC	0.0183 ± 0.04
CCCCCTGC	-0.253 ± 0.059
AACTATCT	-0.0669 ± 0.076
GCAGACGC	-0.09 ± 0.041
AAGGGGTC	-0.177 ± 0.02
GAGGTACA	-0.209 ± 0.034
GCCTCCCC	-0.145 ± 0.0075
CTCGTCGA	-0.0938 ± 0.039
AACTGAAT	-0.239 ± 0.045
CTATTCGC	0.266 ± 0.0095
GTAATCAA	-0.0577 ± 0.022
CAACTTGG	0.181 ± 0.025
AGGGTGAG	0.137 ± 0.097

Sequence	PBM E-score of 8-mer
CGACATTC	-0.159 ± 0.051
AGAGTACT	-0.133 ± 0.067
ATATCCTC	-0.14 ± 0.015
AGGGTGAC	0.326 ± 0.031
GACCTTAA	-0.136 ± 0.0073
CTATATCC	-0.138 ± 0.016
CGGCAAGC	-0.107 ± 0.01
ATTCATAA	-0.207 ± 0.036
CCGCACAG	-0.00829 ± 0.13
CTCGTGCC	-0.0213 ± 0.0088
AGGCAATG	-0.128 ± 0.041
CCCTGGCG	0.0422 ± 0.0021
CCATGACA	0.04 ± 0.02
CTGCTGGA	-0.212 ± 0.047
CAGTATCG	0.072 ± 0.041
ACAAGCCA	0.152 ± 0.057
ACCTATTA	-0.00639 ± 0.025
ATAAACTC	-0.0745 ± 0.061
GAAGTCCC	-0.155 ± 0.028
GACGGGAA	0.0737 ± 0.042
AGATTTCG	0.0377 ± 0.012
CATTTCTA	0.112 ± 0.031
